The values that follow come from the antibiotic and cytotoxicity screens of Wong et al. (2023).

Structures are written as SMILES. Some of the results follow.

The subject of the assay is HSkMC (human skeletal muscle cells). Description: cytotoxicity call (relative viability < 0.9). The following applies: 10 µM.
Consider `C[C@H]1CCCCO[C@H](CN(C)C(=O)Nc2ccc(F)cc2)[C@@H](C)CN([C@@H](C)CO)C(=O)c2cc(NS(=O)(=O)c3ccccc3)ccc2O1`, for which the cytotoxicity call was “inactive”.

With `C[C@@H]1CN([C@H](C)CO)C(=O)CCCn2nncc2CO[C@@H]1CN(C)C(=O)CCCN(C)C`, the cytotoxicity call is “inactive”.

In the case of `CSC(=N)NCCC[C@@H](N)C(=O)O`, the cytotoxicity call is “inactive”.

On to `C[C@@H]1CCCCO[C@H](CN(C)C(=O)NC2CCCCC2)[C@@H](C)CN([C@@H](C)CO)C(=O)c2cc(NS(=O)(=O)c3ccccc3)ccc2O1`, for which the cytotoxicity call is “inactive”.

On to `CC(C)NC(=O)N(C)C[C@@H]1Oc2ccc(NC(=O)NC3CCCCC3)cc2C(=O)N([C@@H](C)CO)C[C@@H]1C`, for which the cytotoxicity call was “inactive”.

For `COc1ccc(S(=O)(=O)Nc2ccc3c(c2)CC(=O)N([C@@H](C)CO)C[C@@H](C)[C@H](CN(C)S(=O)(=O)c2ccccc2)O3)cc1`, the cytotoxicity call was “inactive”.

For `C[C@@H]1CN([C@H](C)CO)C(=O)c2cc(NC(=O)C3CC3)ccc2O[C@@H]1CN(C)Cc1ccc(Oc2ccccc2)cc1`, the cytotoxicity call is “inactive”.

For `C[C@@H]1CN([C@@H](C)CO)S(=O)(=O)c2ccc(-c3cccc(C#N)c3)cc2O[C@H]1CN(C)C(=O)c1ccncc1`, the cytotoxicity call was “inactive”.

As for `CCS(=O)(=O)N1CC[C@]2(CC1)CN([C@@H](CO)c1[nH]c3cc(ccc3c12)OC)C(=O)c1ccc(cc1)F`, the cytotoxicity call was “inactive”.

Turning to `Cc1ccc(S(=O)(=O)Nc2ccc3c(c2)C(=O)N([C@H](C)CO)C[C@H](C)[C@H](CN(C)C(=O)Nc2c(C)noc2C)OCCCC[C@@H](C)O3)cc1`, the cytotoxicity call was “inactive”.

`C[C@@H]1CN([C@@H](C)CO)C(=O)c2cc(NS(=O)(=O)c3cccs3)ccc2O[C@@H](C)CCCCO[C@H]1CN(C)Cc1ccc(C(F)(F)F)cc1`: the cytotoxicity call was “inactive”.

Regarding `COc1ccc(S(=O)(=O)Nc2ccc3c(c2)C(=O)N([C@H](C)CO)C[C@@H](C)[C@@H](CN(C)Cc2ccc(Oc4ccccc4)cc2)O3)cc1`, the cytotoxicity call was “inactive”.

With `O=C(C[C@H]1C[C@H]2c3cc(NC(=O)Nc4ccc(C(F)(F)F)cc4)ccc3O[C@H]2[C@@H](CO)O1)NCc1cc(F)ccc1F`, the cytotoxicity call was “inactive”.

Take `CCOC(=O)[C@@H]1C(Cc2ccccc2)=CN(CCc2ccc(OC)c(OC)c2)C(=O)N1c1ccc(OC)cc1`: the cytotoxicity call was “inactive”.

As to `CCCN(C)C[C@H]1OCCCC[C@@H](C)Oc2ccc(NC(=O)Cc3ccccc3)cc2C(=O)N([C@H](C)CO)C[C@H]1C`, the cytotoxicity call was “inactive”.

In the case of `NCc1ccc(C(=O)N2CCCCC2)cc1`, the cytotoxicity call is “inactive”.

As to `C[C@H](CO)N1C[C@H](C)[C@H](CN(C)C(=O)CN2CCOCC2)Oc2cc(C#Cc3cccc(F)c3)ccc2S1(=O)=O`, the cytotoxicity call is “inactive”.

As to `Cc1ccc(S(=O)(=O)N(C)C[C@H]2Oc3c(NS(=O)(=O)c4cn(C)cn4)cccc3C(=O)N([C@H](C)CO)C[C@H]2C)cc1`, the cytotoxicity call was “inactive”.

In the case of `NCc1c[nH]nc1-c1ccccc1`, the cytotoxicity call was “inactive”.

Regarding `COC(=O)[C@@H]1C[C@H](C#N)N[C@@H]1c1ccccn1`, the cytotoxicity call is “inactive”.

As for `O=C1CCCSc2ccccc21`, the cytotoxicity call was “inactive”.

`CS(=O)(=O)N1CCOC[C@@]2(C1)CN(S(=O)(=O)C1CC1)CCO2`: the cytotoxicity call is “inactive”.

With `c1ccc2c(CSc3nc4ccccc4o3)cccc2c1`, the cytotoxicity call is “inactive”.

For `CCc1nc2ccc(C(=O)Nc3cc(-c4ccccc4)ccc3OC)cn2c1N(C)C(=O)Cc1ccccc1`, the cytotoxicity call is “inactive”.

Regarding `C[C@H]1CN([C@@H](C)CO)C(=O)c2cc(NS(=O)(=O)c3cn(C)cn3)ccc2O[C@H]1CN(C)Cc1ccccc1`, the cytotoxicity call is “inactive”.

As to `COCC(=O)N1C[C@H](C)[C@H](OC)CN(C)C(=O)c2cc(NC(=O)Nc3cccc(F)c3)ccc2OC[C@@H]1C`, the cytotoxicity call was “inactive”.

`CNC(=NC#N)NCCSCc1nc[nH]c1C`: the cytotoxicity call was “inactive”.

Take `C[C@@H]1CCCCO[C@H](CN(C)S(=O)(=O)c2cccs2)[C@@H](C)CN([C@@H](C)CO)C(=O)c2cc(NC(=O)Nc3ccc(F)cc3)ccc2O1`: the cytotoxicity call was “inactive”.

For the compound `C[C@H](CO)N1C[C@H](C)[C@@H](CN(C)S(=O)(=O)c2ccc(Cl)cc2)OCCCC[C@H](C)Oc2ccc(NC(=O)Nc3ccccc3)cc2C1=O`, the cytotoxicity call was “inactive”.

With `CC1(C)CCC2(C(=O)O)CCC3(C)C(=CCC4C5(C)CCC(O)C(C)(C)C5CCC43C)C2C1` (stereo not given), the cytotoxicity call was “inactive”.

Regarding `CN1CCN2c3ccccc3Cc3ccccc3C2C1.Cl` (stereo not given), the cytotoxicity call is “inactive”.

Take `C[C@@H]1CCCCO[C@H](CN(C)Cc2ccncc2)[C@@H](C)CN([C@@H](C)CO)C(=O)c2cc(NC(=O)Nc3ccc(F)cc3)ccc2O1`: the cytotoxicity call is “inactive”.

As for `Cc1cc(C(=O)Nc2cccc3c2O[C@H](CN(C)S(=O)(=O)c2ccc(F)cc2)[C@@H](C)CN([C@@H](C)CO)C3=O)n(C)n1`, the cytotoxicity call was “inactive”.

For the compound `O=C(NC1Cc2ccccc2C1)[C@@H]1[C@@H](CO)[C@@H]2Cn3c(cccc3=O)[C@@H]2N1C(=O)c1cnccn1`, the cytotoxicity call is “inactive”.

As to `C/C=C/c1ccc2c(c1)O[C@H](CN(C)S(=O)(=O)c1ccccc1OC)[C@@H](C)CN([C@H](C)CO)S2(=O)=O`, the cytotoxicity call was “inactive”.

As for `C[C@@H]1CCCCO[C@H](CN(C)C(=O)Nc2cccc3ccccc23)[C@@H](C)CN([C@H](C)CO)C(=O)c2cc(NC(=O)CCC(F)(F)F)ccc2O1`, the cytotoxicity call was “inactive”.

Consider `CC(C)[C@@H](N)C(=O)O`, for which the cytotoxicity call is “inactive”.

Take `C(=N\c1ccccc1)/c1ccccc1`: the cytotoxicity call was “inactive”.

As for `C[C@@H]1CN([C@@H](C)CO)C(=O)c2cc(NC(=O)NC3CCCCC3)ccc2O[C@H]1CN(C)Cc1ccc(Cl)c(Cl)c1`, the cytotoxicity call was “inactive”.

Turning to `C[C@H]1CN([C@@H](C)CO)C(=O)c2cccc(NC(=O)c3ccc(-c4nccs4)cc3)c2O[C@@H]1CN(C)Cc1ccc(-c2ccccc2)cc1`, the cytotoxicity call was “inactive”.
